Source: a collection of fitness landscapes (doi:10.1126/science.1257360)
Some of the results follow.

B1: PhoQ; a variant is named by its letters at X, in order, P23837 (parent)
chain: MKKLLRLFFPLSLRVRFLLATAAVVLVLSLAYGMVALIGYSVSFDKTTFRLLRGESNLFYTLAKWENNKLHVELPENIDKQSPTMTLIYDENGQLLWAQRDVPWLMKMIQPDWLKSNGFHEIEADVNDTSLLLSGDHSIQQQLQEVREDDDDAEMTHSVAVNVYPATSRMPKLTIVVVDTIPVELKSSYMVWSWFIYVLSANLLLVIPLLWVAAWWSLRPIEALAKEVRELEEHNRELLNPATTRELTSLVRNLNRLLKSERERYDKYRTTLTDLTHSLKTPLXXLQXXLRSLRSEKMSVSDAEPVMLEQISRISQQIGYYLHRASMRGGTLLSRELHPVAPLLDNLTSALNKVYQRKGVNISLDISPEISFVGEQNDFVEVMGNVLDNACKYCLEFVEISARQTDEHLYIVVEDDGPGIPLSKREVIFDRGQRVDTLRPGQGVGLAVAREITEQYEGKIVAGESMLGGARMEVIFGRQHSAPKDE

Variants of: B1
Experiment: enrichment ratio after two sorts for PhoP signalling (ratio (wild type AVST 3.29)); higher = more functional
Conditions: with PhoP (E. coli)

| Variant | enrichment ratio |
| --- | --- |
| PGTD | ≤ 0.25 |
| AESS | 16.3 |
| NGRK | ≤ 0.25 |
| QPML | ≤ 0.25 |
| NRSE | ≤ 0.25 |
| PLEC | ≤ 0.25 |
| ARWN | ≤ 0.25 |
| IKQN | ≤ 0.25 |
| RPFR | ≤ 0.25 |
| QMIK | ≤ 0.25 |
| NVSE | ≤ 0.25 |
| TMKY | ≤ 0.25 |
| MHDV | 0.467 |
| DHPN | ≤ 0.25 |
| HHFH | ≤ 0.25 |
| GKWY | ≤ 0.25 |
| ICYH | ≤ 0.25 |
| KPDW | ≤ 0.25 |
| GRRR | ≤ 0.25 |
| WLMY | ≤ 0.25 |
| RKGS | ≤ 0.25 |
| DVGY | ≤ 0.25 |
| PNRV | ≤ 0.25 |
| IKDV | ≤ 0.25 |

| Variant | enrichment ratio |
| --- | --- |
| IGLY | ≤ 0.25 |
| DIYE | ≤ 0.25 |
| IMRM | ≤ 0.25 |
| VTNL | ≤ 0.25 |
| NPCA | ≤ 0.25 |
| WLMG | ≤ 0.25 |
| ASLQ | 11.8 |
| HKKV | 2.09 |
| TWEF | ≤ 0.25 |
| RRYN | ≤ 0.25 |
| YYMS | ≤ 0.25 |
| TTSL | 17.6 |
| HDNG | ≤ 0.25 |
| MCHV | ≤ 0.25 |
| KNVT | ≤ 0.25 |
| VVSF | ≤ 0.25 |
| ERHV | ≤ 0.25 |
| RQNK | ≤ 0.25 |
| MDGQ | ≤ 0.25 |
| VAGA | ≤ 0.25 |
| WQVV | ≤ 0.25 |
| QTSQ | 1.39 |
| AHGS | ≤ 0.25 |
| ILTF | 0.323 |

| Variant | enrichment ratio |
| --- | --- |
| MAWW | ≤ 0.25 |
| MTPL | 0.429 |
| EKWD | ≤ 0.25 |
| LRDY | ≤ 0.25 |
| KKII | ≤ 0.25 |
| LPRG | ≤ 0.25 |
| MRFW | ≤ 0.25 |
| VTVH | ≤ 0.25 |
| DVAR | ≤ 0.25 |
| IDKN | ≤ 0.25 |
| FMHA | ≤ 0.25 |
| YRDK | ≤ 0.25 |
| GNKI | ≤ 0.25 |
| GMWS | ≤ 0.25 |
| RIKC | ≤ 0.25 |
| ISER | ≤ 0.25 |
| DLYS | ≤ 0.25 |
| KKCC | ≤ 0.25 |
| TFNG | 1.19 |
| SEST | 18.4 |
| RQMN | ≤ 0.25 |
| YWHV | ≤ 0.25 |
| EHCM | ≤ 0.25 |
| YKLQ | ≤ 0.25 |

| Variant | enrichment ratio |
| --- | --- |
| QRAS | ≤ 0.25 |
| AERV | ≤ 0.25 |
| DVPE | ≤ 0.25 |
| RWDW | ≤ 0.25 |
| EWPF | ≤ 0.25 |
| PRPE | ≤ 0.25 |
| NKLT | ≤ 0.25 |
| AIGW | 11.4 |
| VQYY | ≤ 0.25 |
| DMGL | ≤ 0.25 |
| NLTY | ≤ 0.25 |
| EPYN | ≤ 0.25 |
| MMNK | ≤ 0.25 |
| WDAC | ≤ 0.25 |
| AICC | 5.26 |
| LGVP | ≤ 0.25 |
| YSFY | ≤ 0.25 |
| QHVA | ≤ 0.25 |
| DKRQ | ≤ 0.25 |
| PCRI | ≤ 0.25 |
| SGSP | ≤ 0.25 |
| TVNA | 2.27 |
| DLHY | ≤ 0.25 |
| QAKS | ≤ 0.25 |

| Variant | enrichment ratio |
| --- | --- |
| EVHY | ≤ 0.25 |
| QRHF | ≤ 0.25 |
| LGCD | ≤ 0.25 |
| MDAF | ≤ 0.25 |
| YGTY | ≤ 0.25 |
| DSQG | ≤ 0.25 |
| PAGY | ≤ 0.25 |
| TAGF | 13.2 |
| PVPS | ≤ 0.25 |
| TWMT | ≤ 0.25 |
| RLVQ | ≤ 0.25 |
| GAKG | ≤ 0.25 |
| YMPP | ≤ 0.25 |
| AHCW | ≤ 0.25 |
| PMSA | ≤ 0.25 |
| SSAA | 10.8 |
| KSGA | ≤ 0.25 |
| YAVL | ≤ 0.25 |
| HQPP | ≤ 0.25 |
| TNLE | 0.806 |
| GTVS | ≤ 0.25 |
| FAAT | ≤ 0.25 |
| HYMV | 0.57 |
| YIYY | ≤ 0.25 |

| Variant | enrichment ratio |
| --- | --- |
| SDHK | ≤ 0.25 |
| HCPW | ≤ 0.25 |
| PPIF | ≤ 0.25 |
| YICS | 0.338 |
| NPIP | ≤ 0.25 |
| GAAN | ≤ 0.25 |
| LSEH | ≤ 0.25 |
| NFDW | ≤ 0.25 |
| KRKW | ≤ 0.25 |
| KNMC | ≤ 0.25 |
| LANS | ≤ 0.25 |
| VMWS | ≤ 0.25 |
| ANFW | ≤ 0.25 |
| GEYV | ≤ 0.25 |
| QNSD | ≤ 0.25 |
| APWM | ≤ 0.25 |
| WALP | ≤ 0.25 |
| GDQM | ≤ 0.25 |
| FQTE | ≤ 0.25 |
| TRYG | ≤ 0.25 |
| IDTR | ≤ 0.25 |
| GYHT | ≤ 0.25 |
| INFQ | ≤ 0.25 |
| EGGR | ≤ 0.25 |

| Variant | enrichment ratio |
| --- | --- |
| LMMD | ≤ 0.25 |
| FPTD | ≤ 0.25 |
| YCKG | ≤ 0.25 |
| WNHL | ≤ 0.25 |
| QQVS | ≤ 0.25 |
| AQHQ | 7.51 |
| HKAE | ≤ 0.25 |
| NLIY | ≤ 0.25 |
| PRRV | ≤ 0.25 |
| RSVA | ≤ 0.25 |
| FETF | ≤ 0.25 |
| ASIL | 19.5 |
| VTYY | ≤ 0.25 |
| NTPN | ≤ 0.25 |
| TNTK | ≤ 0.25 |
| MYVI | ≤ 0.25 |
| KFAI | ≤ 0.25 |
| ANRP | ≤ 0.25 |
| FNRD | ≤ 0.25 |
| RLVC | ≤ 0.25 |
| FQSA | ≤ 0.25 |
| YGSF | ≤ 0.25 |
| SSHE | ≤ 0.25 |
| KVSA | ≤ 0.25 |

| Variant | enrichment ratio |
| --- | --- |
| WENA | ≤ 0.25 |
| IKVS | ≤ 0.25 |
| HMHV | ≤ 0.25 |
| VDMC | ≤ 0.25 |
| NAMW | ≤ 0.25 |
| LQTW | ≤ 0.25 |
| KPNK | ≤ 0.25 |
| EMRK | ≤ 0.25 |
| ENID | ≤ 0.25 |
| LNRD | 0.657 |
| HNWL | 0.887 |
| NKGG | ≤ 0.25 |
| PYSI | ≤ 0.25 |
| HEWL | ≤ 0.25 |
| SCVL | 1.96 |
| SSKF | ≤ 0.25 |
| VDLH | ≤ 0.25 |
| HNYA | ≤ 0.25 |
| GHCS | ≤ 0.25 |
| YKHE | ≤ 0.25 |
| KSLL | ≤ 0.25 |
| DNAN | ≤ 0.25 |
| HCCH | ≤ 0.25 |
| TSFI | 1.45 |

| Variant | enrichment ratio |
| --- | --- |
| ISIH | 0.269 |
| SESN | 7.92 |
| VDRE | ≤ 0.25 |
| PLNS | ≤ 0.25 |
| FKYL | ≤ 0.25 |
| GVSV | ≤ 0.25 |
| DSEV | ≤ 0.25 |
| QRWS | ≤ 0.25 |
| VQTA | ≤ 0.25 |
| KYNE | ≤ 0.25 |
| MIIA | ≤ 0.25 |
| TQGF | 4.68 |
| QLQS | ≤ 0.25 |
| KDTR | ≤ 0.25 |
| KRMH | ≤ 0.25 |
| VWSL | ≤ 0.25 |
| NTMR | ≤ 0.25 |
| VHMK | ≤ 0.25 |
| FKRF | ≤ 0.25 |
| TWCL | ≤ 0.25 |
| KDSN | ≤ 0.25 |
| WWIQ | ≤ 0.25 |
| AKDF | ≤ 0.25 |
| ASPI | 6.68 |

| Variant | enrichment ratio |
| --- | --- |
| DATS | ≤ 0.25 |
| KPNW | ≤ 0.25 |
| RMNW | ≤ 0.25 |
| HRTK | ≤ 0.25 |
| TFNN | 4.5 |
| IWER | ≤ 0.25 |
| YSAT | ≤ 0.25 |
| SKCR | ≤ 0.25 |
| SMQV | ≤ 0.25 |
| FTTT | ≤ 0.25 |
| GGIP | ≤ 0.25 |
| PNSE | ≤ 0.25 |
| NEYL | ≤ 0.25 |
| SDMT | 5.7 |
| PMRI | ≤ 0.25 |
| MKVK | ≤ 0.25 |
| SCVK | 1.24 |
| SVCV | 8.55 |
| YSLC | 7.9 |
| NAEA | ≤ 0.25 |
| DFTW | ≤ 0.25 |
| PQEL | ≤ 0.25 |
| LACW | ≤ 0.25 |
| DHAD | ≤ 0.25 |

| Variant | enrichment ratio |
| --- | --- |
| KITF | ≤ 0.25 |
| PFCE | ≤ 0.25 |
| VQDA | ≤ 0.25 |
| FCDF | ≤ 0.25 |
| LDVV | ≤ 0.25 |
| GVDP | ≤ 0.25 |
| RNWH | ≤ 0.25 |
| VSGA | ≤ 0.25 |
| PIDY | ≤ 0.25 |
| HLLS | ≤ 0.25 |
| EGYN | ≤ 0.25 |
| KCPY | ≤ 0.25 |
| YSWF | ≤ 0.25 |
| YGPT | ≤ 0.25 |
| TWHS | ≤ 0.25 |
| EWHG | ≤ 0.25 |
| MAVW | ≤ 0.25 |
| RVHP | ≤ 0.25 |
| DHEY | ≤ 0.25 |
| QVAY | ≤ 0.25 |
| VNVY | ≤ 0.25 |
| DSSV | ≤ 0.25 |
| IEYD | ≤ 0.25 |
| HDYV | ≤ 0.25 |

| Variant | enrichment ratio |
| --- | --- |
| SWWM | ≤ 0.25 |
| IAER | ≤ 0.25 |
| RATH | ≤ 0.25 |
| NNEF | ≤ 0.25 |
| YKTQ | ≤ 0.25 |
| DRMA | ≤ 0.25 |
| WMIC | ≤ 0.25 |
| NLCM | ≤ 0.25 |
| IVNF | ≤ 0.25 |
| RFPV | ≤ 0.25 |
| WHHY | ≤ 0.25 |
| QIYY | ≤ 0.25 |
| GQYR | ≤ 0.25 |
| GEKF | ≤ 0.25 |
| HSGT | ≤ 0.25 |
| WNPR | ≤ 0.25 |
| LFGQ | ≤ 0.25 |
| GISG | 8.5 |
| DSMP | ≤ 0.25 |
| GCCT | ≤ 0.25 |
| DMTA | ≤ 0.25 |
| QSVG | ≤ 0.25 |
| KDAS | ≤ 0.25 |
| SPED | ≤ 0.25 |

| Variant | enrichment ratio |
| --- | --- |
| RLHA | ≤ 0.25 |
| YVPG | ≤ 0.25 |
| NQFA | ≤ 0.25 |
| SQAT | 12.5 |
| RLAW | ≤ 0.25 |
| PIQF | ≤ 0.25 |
| SVKG | ≤ 0.25 |
| YPTW | ≤ 0.25 |
| IFKE | ≤ 0.25 |
| ESHQ | ≤ 0.25 |
| RHWF | ≤ 0.25 |
| MGWE | ≤ 0.25 |
| NNSN | ≤ 0.25 |
| RLDF | ≤ 0.25 |
| HWFY | ≤ 0.25 |
| WHGA | ≤ 0.25 |
| FYAC | ≤ 0.25 |
| WQLI | ≤ 0.25 |
